27 compounds from PubChem BioAssay AID1259407 (Chemical Carcinogenesis Research Information System (CCRIS), 2018) can be followed below.

In the data set the test system is CCRIS mutagenicity, Ames/micronucleus/aberration tests. The data set can be described thus: CCRIS mutagenicity studies.
Where [1] appears, read: Test System: AMES SALMONELLA TYPHIMURIUM, Strain/Indicator: TA98, Metabolic Activation: NONE, Method: PREINCUBATION
[2] abbreviates: Test System: MOUSE LYMPHOMA, Strain/Indicator: L5178Y (TK+/TK-), Metabolic Activation: NONE, Method: SUSPENSION/PLATE.
[3] abbreviates: End Point: IN VITRO CHROMOSOMAL ABERRATIONS, Test System: CHO CELLS, Metabolic Activation: NONE.
Setting [4] is: End Point: IN VITRO CHROMOSOMAL ABERRATIONS, Test System: CHO CELLS, Metabolic Activation: RAT, LIVER, S-9, AROCLOR 1254.
[5] abbreviates: Test System: Ames Salmonella typhimurium, Strain/Indicator: TA100, Metabolic Activation: None, Method: Preincubation.
[6] abbreviates: End Point: IN VITRO CHROMOSOMAL ABERRATIONS, Test System: CHL CELLS, Metabolic Activation: NONE.

Entries after “also recorded” stand apart in the source; their conditions may differ. For part of its entries the source gives two or more results. This list holds those alone. No rule for the calls is given here. An entry can have further records. The records of an entry do not match, cause unknown; they may come from other doses, times, organisms or constructs than stated. A tag in brackets gives the origin of a value. A, B and so on number the origins entry by entry. Brackets with × give the number of equal values in this list.

Regarding `Oc1ccc(O)c(O)c1`, the mutagenic call runs as follows: (Test System: AMES SALMONELLA TYPHIMURIUM, Strain/Indicator: TA97, Metabolic Activation: NONE, Method: PREINCUBATION) “inactive; negative and active; positive”; under setting [1], “inactive; negative and active; positive”.
As for `Cn1c(N)nc2c3cccnc3ccc21`, the mutagenic call (Test System: AMES SALMONELLA TYPHIMURIUM, Strain/Indicator: TA98, Metabolic Activation: RAT, LIVER, S-9, Method: PREINCUBATION) was “inactive; negative [study A] and active; positive [study B]”.
For `OC1C2(Cl)C3(Cl)C4(Cl)C(Cl)(Cl)C5(Cl)C3(Cl)C1(Cl)C5(Cl)C24Cl` (stereo not drawn), the mutagenic call (End Point: IN VITRO CHROMOSOMAL ABERRATIONS, Test System: CHINESE HAMSTER OVARY CELLS, Metabolic Activation: RAT, LIVER, S-9, AROCLOR 1254) is “inactive; negative and active; positive”.
With `c1ccoc1`, the mutagenic call (Test System: AMES SALMONELLA TYPHIMURIUM, Strain/Indicator: TA98, Metabolic Activation: NONE, Method: STANDARD PLATE) is “inactive; negative [study A] and active; positive [study B]”; the mutagenic call (Test System: AMES SALMONELLA TYPHIMURIUM, Strain/Indicator: TA100, Metabolic Activation: NONE, Method: STANDARD PLATE) is “active; positive [study A] and inactive; negative [study B]”; the mutagenic call under setting [2] is “inactive; negative and active; positive”.
With `Cc1cc(-c2cc(C)c(N)c(C)c2)cc(C)c1N`, the mutagenic call under setting [2] is “active; positive (2×) and inactive; negative”.
In the case of `O=[N+]([O-])c1ccccc1CCl`, the mutagenic call under setting [1] was “active; positive [study A] and inactive; negative [study B] and inactive; negative [study C]”.
As for `CCCOC(=O)c1cc(O)c(O)c(O)c1`, the mutagenic call under setting [3] is “active; positive (2×) and active; positive; weak response”.
On to `[Na+]`, for which, where the note is “End Point: IN VITRO CHROMOSOMAL ABERRATIONS, Test System: CHO-WBL CELLS, Metabolic Activation: NONE”, the mutagenic call is listed as “active; positive (structural changes); osmolality of solution decisive factor; also recorded: active; positive (structural changes, ploidy, endo-replication)”.
Turning to `ClCCOCCCl`, the mutagenic call is “inactive; negative and active; positive (2×)” (Test System: AMES SALMONELLA TYPHIMURIUM, Strain/Indicator: TA1535, Metabolic Activation: HAMSTER, LIVER, S-9, PHENOBARBITAL AND BETA-NAPHTHOFLAVONE, Method: PREINCUBATION); “inactive; negative and active; positive (2×)” (Test System: AMES SALMONELLA TYPHIMURIUM, Strain/Indicator: TA1535, Metabolic Activation: RAT, LIVER, S-9, PHENOBARBITAL AND BETA-NAPHTHOFLAVONE, Method: PREINCUBATION); “active; positive (2×) and inactive; negative” (Test System: E. COLI, Strain/Indicator: WP2UVRA, Metabolic Activation: HAMSTER, LIVER, S-9, PHENOBARBITAL AND BETA-NAPHTHOFLAVONE, Method: PREINCUBATION).
For the compound `Nc1ccccc1C(=O)O`, the mutagenic call under setting [2] was “active; positive and inactive; negative”.
On to `O=NN1CCSC1`, for which the mutagenic call (Test System: AMES SALMONELLA TYPHIMURIUM, Strain/Indicator: TA100, Metabolic Activation: NONE, Method: PREINCUBATION) is “inactive; negative [study A] and active; positive [study A] and active; positive [study B]”.
On to `O=[N+]([O-])c1ccc(Cl)c(Cl)c1`, for which the mutagenic call (End Point: In vitro chromosomal aberrations, Test System: Chinese hamster lung (CHL/IU) cells, Metabolic Activation: None) was “active; positive (structural changes and ploidy). precipitation observed in culture medi (2×); also recorded: active; positive (ploidy). precipitation observed in culture medium at 0.16 mg/ml; 0.20”.
In the case of `Nc1ccc2nc3ccccn3c2n1`, the mutagenic call (Test System: CHINESE HAMSTER V-79, Strain/Indicator: V-79/6-THIOGUANINE, Metabolic Activation: HAMSTER, PANCREAS DUCT, EPITHELIAL CELLS) was “active; positive and inactive; negative”.
As to `O=c1[nH]cc(F)c(=O)[nH]1`, where the note is “End Point: IN VITRO MICRONUCLEUS, Test System: V79 CELLS, Metabolic Activation: NONE”, the mutagenic call was “inactive; negative and active; positive (2×)”.
`Nc1ccc(Cl)cc1N`: the mutagenic call by setting is: (Test System: E. COLI, Strain/Indicator: WP2 UVRA, Metabolic Activation: HAMSTER, LIVER, S-9, Method: STANDARD PLATE) “inactive; negative (2×) and active; positive”; (Test System: E. COLI, Strain/Indicator: WP2 UVRA, Metabolic Activation: RAT, LIVER, S-9, AROCLOR 1254, Method: STANDARD PLATE) “inactive; negative (2×) and active; positive”.
On to `N.N.[Br-].[Br-].[Pt+2]`, for which the mutagenic call reads like this: (Test System: AMES SALMONELLA TYPHIMURIUM, Strain/Indicator: TA98, Metabolic Activation: RAT, LIVER, S-9, AROCLOR 1254, Method: PREINCUBATION) “active; positive and inactive; negative”; (Test System: AMES SALMONELLA TYPHIMURIUM, Strain/Indicator: TA100, Metabolic Activation: RAT, LIVER, S-9, AROCLOR 1254, Method: PREINCUBATION) “active; positive and inactive; negative”.
Regarding `COC(=O)[C@H]1[C@H]2C[C@@H]3c4[nH]c5cc(OC)ccc5c4CCN3C[C@H]2C[C@@H](OC(=O)c2cc(OC)c(OC)c(OC)c2)[C@@H]1OC`, the mutagenic call under setting [4] was “inactive; negative; also recorded: inactive; negative; precipitation occurred at 200 ug/ml”.
For `Nc1ccc2c(ccc3c4ccccc4ccc23)c1`, the mutagenic call (Test System: AMES SALMONELLA TYPHIMURIUM, Strain/Indicator: TA100, Metabolic Activation: RAT LIVER S-9, AROCLOR 1254 (10%), Method: STANDARD PLATE) is “active; positive [0.2 to 2.0 µg/plate] and inactive; negative [5 to 100 µg/plate]”.
In the case of `CCCCC(CC)COC(=O)c1ccccc1C(=O)OCC(CC)CCCC` (stereo not drawn), the mutagenic call is, setting by setting: under setting [3], “inactive; negative; precipitation occurred at 500, 1600, and 5000 ug/ml; also recorded: inactive; negative; precipitation occurred at all doses”; under setting [4], “inactive; negative; precipitation occurred at 500, 1600, and 5000 ug/ml; also recorded: inactive; negative; precipitation occurred at all doses”.
As for `O=Cc1ccc(CO)o1`, the mutagenic call under setting [5] is “inactive; negative; also recorded: active; positive (weak response; increase in number of mutants <2 times controls )”.
For the compound `FC(F)(F)c1ccc(Cl)c(Cl)c1`, the mutagenic call (Test System: Ames Salmonella typhimurium, Strain/Indicator: TA98, Metabolic Activation: None, Method: Preincubation) is “inactive; negative; also recorded: inactive; negative (2 experimental trials)”; the mutagenic call (Test System: Ames Salmonella typhimurium, Strain/Indicator: TA98, Metabolic Activation: Rat, Liver, S9, Sodium phenobarbital and 5,6-benzoflavone, Method: Preincubation) is “inactive; negative; also recorded: inactive; negative (2 experimental trials)”; the mutagenic call under setting [5] was “inactive; negative; also recorded: inactive; negative (2 experimental trials)”; the mutagenic call (Test System: Ames Salmonella typhimurium, Strain/Indicator: TA100, Metabolic Activation: Rat, Liver, S9, Sodium phenobarbital and 5,6-benzoflavone, Method: Preincubation) is “inactive; negative; also recorded: inactive; negative (2 experimental trials)”; the mutagenic call (Test System: Ames Salmonella typhimurium, Strain/Indicator: TA1535, Metabolic Activation: None, Method: Preincubation) is “inactive; negative; also recorded: inactive; negative (2 experimental trials)”; the mutagenic call (Test System: Ames Salmonella typhimurium, Strain/Indicator: TA1535, Metabolic Activation: Rat, Liver, S9, Sodium phenobarbital and 5,6-benzoflavone, Method: Preincubation) is “inactive; negative; also recorded: inactive; negative (2 experimental trials)”. Besides, the mutagenic call is “inactive; negative; also recorded: inactive; negative (2 experimental trials)” (Test System: Ames Salmonella typhimurium, Strain/Indicator: TA1537, Metabolic Activation: None, Method: Preincubation); “inactive; negative; also recorded: inactive; negative (2 experimental trials)” (Test System: Ames Salmonella typhimurium, Strain/Indicator: TA1537, Metabolic Activation: Rat, Liver, S9, Sodium phenobarbital and 5,6-benzoflavone, Method: Preincubation).
As to `O=[N+]([O-])c1cccc2c([N+](=O)[O-])cccc12`, the mutagenic call under setting [6] is “active; positive (ploidy changes); also recorded: inactive; negative; authors report equivocal results for ploidy changes at 0.063 and 0.13”.
With `COP(=O)(OC)C(O)C(Cl)(Cl)Cl` (stereo not drawn), where the note is “Test System: AMES SALMONELLA TYPHIMURIUM, Strain/Indicator: TA100, Metabolic Activation: NONE, Method: FLUCTUATION TEST”, the mutagenic call is “inactive; negative and active; positive”.
In the case of `C`, the mutagenic call (End Point: In vitro chromosomal aberrations, Test System: Chinese hamster V79 lung fibroblast cells, Metabolic Activation: None) is “inactive; negative. positive response at 10 ug/ml was considered not relevant by authors b; also recorded: inactive; negative. material tested was baytubes, multi-walled carbon-nanotubes”.
Take `CC[C@@]1(O)C[C@H](O[C@H]2C[C@H](N(C)C)[C@H](O[C@H]3C[C@H](O)[C@H](O[C@H]4CCC(=O)[C@H](C)O4)[C@H](C)O3)[C@H](C)O2)c2c(cc3c(c2O)C(=O)c2c(O)cccc2C3=O)[C@H]1C(=O)OC`: where the note is “Test System: AMES SALMONELLA TYPHIMURIUM, Strain/Indicator: TA102, Metabolic Activation: NONE, Method: STANDARD PLATE”, the mutagenic call was “inactive; negative [study A] and active; positive [study B]”.
For the compound `CC(=O)OCCN(CCC#N)c1ccc(N=Nc2ccc([N+](=O)[O-])cc2)cc1`, the mutagenic call under setting [6] is “inactive; negative and active; positive (structural changes)”.
As for `CC(C)[N+](=O)[O-]`, the mutagenic call runs as follows: under setting [1], “inactive; negative [study A] and active; positive [study B] and inactive; negative [study C]”; (Test System: CHINESE HAMSTER V-79, Strain/Indicator: V-79/6-THIOGUANINE, Metabolic Activation: NONE) “active; positive [study A] and inactive; negative [study B]”.
